# The other results are listed elsewhere or left out.
# B1: DC-ASGPR L+GEE (Homo sapiens) (protein)
# chain: MTRTYENFQYLENKVKVQGFKNGPLPLQSLLQRLRSGPCHLLLSLGLGLLLLVIICVVGFQNSKFQRDLVTLRTDFSNFTSNTVAEIQALTSQGSSLEETIASLKAEVEGFKQERQAGVSELQEHTTQKAHLGHCPHCPSVCVPVHSEMLLRVQQLVQDLKKLTCQVATLNNNGEEASTEGTCCPVNWVEHQDSCYWFSHSGMSWAEAEKYCQLKNAHLVVINSREEQNFVQKYLGSAYTWMGLSDPEGAWKWVDGTDYATGFQNWKPGQPDDWQGHGLGGGEDCAHFHPDGRWNDDVCQRPYHWVCEAGLGQTSQESH
# Experiments:
# Experiment in all cases: glycan array binding signal (z-score within array); higher = stronger binding
# Details in all cases: glycan notation: IUPAC condensed, linker removed
# [1] = molecular target: Gal(b1-3)GlcNAc(b1-2)Man(a1-3)[Gal(b1-3)GlcNAc(b1-2)Man(a1-6)]Man(b1-4)GlcNAc(b1-4)GlcNAc
# Method in brief: (§1)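 Glycan array binding is given as a within-array Z-score, which can be read as non-binding when negative. The arrays, 3228 of them, came from the Consortium for Functional Glycomics database and were retained only where the protein sequence was available. Z-scores were averaged across arrays of the same protein sequence at different concentrations or buffers and across linkers.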
# [2] = molecular target: Gal(b1-3)GlcNAc(b1-2)Man(a1-3)[Gal(b1-3)GlcNAc(b1-2)Man(a1-6)]Man(b1-4)GlcNAc(b1-4)[Fuc(a1-6)]GlcNAc
# Method in brief: as §1
# [3] = molecular target: Gal(b1-3)GlcNAc(b1-2)Man(a1-3)[GlcNAc(b1-4)][Gal(b1-3)GlcNAc(b1-2)Man(a1-6)]Man(b1-4)GlcNAc(b1-4)GlcNAc
# Method in brief: as §1
# [4] = molecular target: Gal(b1-3)GlcNAc(b1-2)[Gal(b1-3)GlcNAc(b1-6)]Man(a1-6)[Gal(b1-3)GlcNAc(b1-2)Man(a1-3)]Man(b1-4)GlcNAc(b1-4)GlcNAc
# Method in brief: as §1
# [5] = molecular target: Gal(b1-3)GlcNAc(b1-3)Gal(b1-3)GlcNAc
# Method in brief: as §1
# [6] = molecular target: Gal(b1-3)GlcNAc(b1-3)Gal(b1-4)Glc
# Method in brief: as §1
# [7] = molecular target: Gal(b1-3)GlcNAc(b1-3)Gal(b1-4)GlcNAc
# Method in brief: as §1
# [8] = molecular target: Gal(b1-3)GlcNAc(b1-3)Gal(b1-4)GlcNAc(b1-2)Man(a1-3)[Gal(b1-3)GlcNAc(b1-3)Gal(b1-4)GlcNAc(b1-2)Man(a1-6)]Man(b1-4)GlcNAc(b1-4)GlcNAc
# Method in brief: as §1
# [9] = molecular target: Gal(b1-3)GlcNAc(b1-3)Gal(b1-4)GlcNAc(b1-2)[Gal(b1-3)GlcNAc(b1-3)Gal(b1-4)GlcNAc(b1-6)]Man(a1-6)[Gal(b1-3)GlcNAc(b1-3)Gal(b1-4)GlcNAc(b1-2)Man(a1-3)]Man(b1-4)GlcNAc(b1-4)[Fuc(a1-6)]GlcNAc
# Method in brief: as §1
# [10] = molecular target: Gal(b1-3)GlcNAc(b1-3)Gal(b1-4)GlcNAc(b1-3)Gal(b1-4)GlcNAc(b1-2)[Gal(b1-3)GlcNAc(b1-3)Gal(b1-4)GlcNAc(b1-3)Gal(b1-4)GlcNAc(b1-6)]Man(a1-6)[Gal(b1-3)GlcNAc(b1-3)Gal(b1-4)GlcNAc(b1-3)Gal(b1-4)GlcNAc(b1-2)Man(a1-3)]Man(b1-4)GlcNAc(b1-4)[Fuc(a1-6)]GlcNAc
# Method in brief: as §1
# [11] = molecular target: Gal(b1-3)GlcNAc(b1-3)Gal(b1-4)GlcNAc(b1-6)[Gal(b1-3)GlcNAc(b1-3)]Gal(b1-4)Glc
# Method in brief: as §1
# [12] = molecular target: Gal(b1-3)GlcNAc(b1-3)Gal(b1-4)[Fuc(a1-3)]GlcNAc
# Method in brief: as §1
# [13] = molecular target: Gal(b1-3)GlcNAc(b1-3)Gal(b1-4)[Fuc(a1-3)]GlcNAc(b1-6)[Gal(b1-3)GlcNAc(b1-3)]Gal(b1-4)Glc
# Method in brief: as §1
# [14] = molecular target: Gal(b1-3)GlcNAc(b1-3)GalNAc
# Method in brief: as §1
# [15] = molecular target: Gal(b1-3)GlcNAc(b1-6)Gal(b1-4)GlcNAc
# Method in brief: as §1
# [16] = molecular target: Gal(b1-3)GlcNAc(b1-6)GalNAc
# Method in brief: as §1
# [17] = molecular target: Gal(b1-3)GlcNAc(b1-6)[Gal(b1-3)]GalNAc
# Method in brief: as §1
# Gal(b1-3)GlcNAc6S = molecular target: Gal(b1-3)GlcNAc6S
# Method in brief: as §1
# [18] = molecular target: Gal(b1-3)[Fuc(a1-4)]GlcNAc
# Method in brief: as §1
# [19] = molecular target: Gal(b1-3)[Fuc(a1-4)]GlcNAc(b1-2)Man
# Method in brief: as §1
# [20] = molecular target: Gal(b1-3)[Fuc(a1-4)]GlcNAc(b1-2)Man(a1-3)[Gal(b1-3)[Fuc(a1-4)]GlcNAc(b1-2)Man(a1-6)]Man(b1-4)GlcNAc(b1-4)[Fuc(a1-6)]GlcNAc
# Method in brief: as §1
# [21] = molecular target: Gal(b1-3)[Fuc(a1-4)]GlcNAc(b1-3)Gal(b1-3)[Fuc(a1-4)]GlcNAc
# Method in brief: as §1
# [22] = molecular target: Gal(b1-3)[Fuc(a1-4)]GlcNAc(b1-3)Gal(b1-4)[Fuc(a1-3)]GlcNAc
# Method in brief: as §1
# [23] = molecular target: Gal(b1-3)[Fuc(a1-4)]GlcNAc(b1-6)GalNAc
# Method in brief: as §1
# [24] = molecular target: Gal(b1-3)[GlcNAc(b1-6)]GalNAc
# Method in brief: as §1
# [25] = molecular target: Gal(b1-3)[Neu5Ac(a2-6)]GalNAc
# Method in brief: as §1
# [26] = molecular target: Gal(b1-3)[Neu5Ac(a2-6)]GlcNAc(b1-4)Gal(b1-4)Glc
# Method in brief: as §1
# [27] = molecular target: Gal(b1-3)[Neu5Ac(b2-6)]GalNAc
# Method in brief: as §1
# Gal(b1-4)Gal = molecular target: Gal(b1-4)Gal
# Method in brief: as §1
# [28] = molecular target: Gal(b1-4)GalNAc(a1-3)[Fuc(a1-2)]Gal(b1-4)GlcNAc
# Method in brief: as §1
# [29] = molecular target: Gal(b1-4)GalNAc(b1-3)[Fuc(a1-2)]Gal(b1-4)GlcNAc
# Method in brief: as §1
# Gal(b1-4)Glc = molecular target: Gal(b1-4)Glc
# Method in brief: as §1
# Gal(b1-4)Glc6S = molecular target: Gal(b1-4)Glc6S
# Method in brief: as §1
# Gal(b1-4)GlcNAc = molecular target: Gal(b1-4)GlcNAc
# Method in brief: as §1
# [30] = molecular target: Gal(b1-4)GlcNAc(a1-6)Gal(b1-4)GlcNAc
# Method in brief: as §1
# Gal(b1-4)GlcNAc(b1-2)Man = molecular target: Gal(b1-4)GlcNAc(b1-2)Man
# Method in brief: as §1
# [31] = molecular target: Gal(b1-4)GlcNAc(b1-2)Man(a1-3)Man(b1-4)GlcNAc(b1-4)GlcNAc
# Method in brief: as §1
# [32] = molecular target: Gal(b1-4)GlcNAc(b1-2)Man(a1-3)[Gal(b1-4)GlcNAc(b1-2)Man(a1-6)]Man(b1-4)GlcNAc(b1-4)GlcNAc
# Method in brief: as §1
# [33] = molecular target: Gal(b1-4)GlcNAc(b1-2)Man(a1-3)[Gal(b1-4)GlcNAc(b1-2)Man(a1-6)]Man(b1-4)GlcNAc(b1-4)[Fuc(a1-6)]GlcNAc
# Method in brief: as §1
# [34] = molecular target: Gal(b1-4)GlcNAc(b1-2)Man(a1-3)[Gal(b1-4)GlcNAc(b1-2)Man(a1-6)][Gal(b1-4)GlcNAc(b1-4)]Man(b1-4)GlcNAc(b1-4)[Fuc(a1-6)]GlcNAc
# Method in brief: as §1
# [35] = molecular target: Gal(b1-4)GlcNAc(b1-2)Man(a1-3)[Gal(b1-4)GlcNAc(b1-2)Man(a1-6)][GlcNAc(b1-4)]Man(b1-4)GlcNAc(b1-4)[Fuc(a1-6)]GlcNAc
# Method in brief: as §1
# [36] = molecular target: Gal(b1-4)GlcNAc(b1-2)Man(a1-3)[GlcNAc(b1-2)Man(a1-6)]Man(b1-4)GlcNAc(b1-4)GlcNAc
# Method in brief: as §1
# [37] = molecular target: Gal(b1-4)GlcNAc(b1-2)Man(a1-3)[GlcNAc(b1-4)][Gal(b1-4)GlcNAc(b1-2)Man(a1-6)]Man(b1-4)GlcNAc(b1-4)GlcNAc
# Method in brief: as §1
# [38] = molecular target: Gal(b1-4)GlcNAc(b1-2)Man(a1-3)[Man(a1-6)]Man(b1-4)GlcNAc(b1-4)GlcNAc
# Method in brief: as §1
# [39] = molecular target: Gal(b1-4)GlcNAc(b1-2)Man(a1-6)Man(b1-4)GlcNAc(b1-4)GlcNAc
# Method in brief: as §1
binder,measurement,setting,value
B1,glycan array binding signal (z-score),[1],-0.235
same,glycan array binding signal (z-score),[2],-0.527
same,glycan array binding signal (z-score),[3],0.141
same,glycan array binding signal (z-score),[4],-0.037
same,glycan array binding signal (z-score),[5],-0.664
same,glycan array binding signal (z-score),[6],0.316
same,glycan array binding signal (z-score),[7],-0.133
same,glycan array binding signal (z-score),[8],0.389
same,glycan array binding signal (z-score),[9],0.927
same,glycan array binding signal (z-score),[10],1.47
same,glycan array binding signal (z-score),[11],-0.11
same,glycan array binding signal (z-score),[12],-0.22
same,glycan array binding signal (z-score),[13],-0.336
same,glycan array binding signal (z-score),[14],-0.511
same,glycan array binding signal (z-score),[15],-0.073
same,glycan array binding signal (z-score),[16],3.3
same,glycan array binding signal (z-score),[17],-0.453
same,glycan array binding signal (z-score),Gal(b1-3)GlcNAc6S,-0.504
same,glycan array binding signal (z-score),[18],-0.264
same,glycan array binding signal (z-score),[19],0.111
same,glycan array binding signal (z-score),[20],-0.413
same,glycan array binding signal (z-score),[21],-0.093
same,glycan array binding signal (z-score),[22],-0.367
same,glycan array binding signal (z-score),[23],1.22
same,glycan array binding signal (z-score),[24],-0.327
same,glycan array binding signal (z-score),[25],-0.3
same,glycan array binding signal (z-score),[26],-0.382
same,glycan array binding signal (z-score),[27],-0.037
same,glycan array binding signal (z-score),Gal(b1-4)Gal,-0.026
same,glycan array binding signal (z-score),[28],-0.748
same,glycan array binding signal (z-score),[29],-0.373
same,glycan array binding signal (z-score),Gal(b1-4)Glc,0.196
same,glycan array binding signal (z-score),Gal(b1-4)Glc6S,-0.159
same,glycan array binding signal (z-score),Gal(b1-4)GlcNAc,-0.286
same,glycan array binding signal (z-score),[30],-0.551
same,glycan array binding signal (z-score),Gal(b1-4)GlcNAc(b1-2)Man,0.398
same,glycan array binding signal (z-score),[31],-0.271
same,glycan array binding signal (z-score),[32],-0.343
same,glycan array binding signal (z-score),[33],-0.007
same,glycan array binding signal (z-score),[34],-0.406
same,glycan array binding signal (z-score),[35],-0.391
same,glycan array binding signal (z-score),[36],0.038
same,glycan array binding signal (z-score),[37],-0.418
same,glycan array binding signal (z-score),[38],-0.031
same,glycan array binding signal (z-score),[39],-0.364

# From the supplement of paper PMC8728848
